Values joined by “and” are separate entries in the source; they are usually repeats but may differ in a detail not shown here. Equal entries are not always repeated. About 5,800 (2.1%) of roughly 270,000 compounds were called active. The inconclusive results got no clear call from the source; some entries with a clear call stand among them for comparison. Calls follow the shape of the dose curve; as a rule, active = well fitted inhibition curve with a large enough effect; inconclusive = small, poorly fitted or top-dose-only effect; inactive = flat fitted curve, though single readings scatter. A potency beside an inconclusive call is a rough fit, not a confirmed value.
Target: Microtubule-associated protein tau (Homo sapiens) (UniProt P10636)
Assay: qHTS for Inhibitors of Tau Fibril Formation, Thioflavin T Binding; also: nearly all actives have a fitted effect of over 55% in size
Settings: recombinant tau K18 P301L (four-repeat tau fragment), heparin-induced fibrillization, ThT fluorescence; series mostly up to 57.4 µM
Procedure, shortened: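 K18 P301L tau (15 uM + 0.24 uM Alexa 594-tagged), heparin 20 uM, NaOAc pH 7, 6 h 37 C; ThT 30 uM, 1 h RT, ex 450/em 510 nm.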
Potency is read from the fitted curve at half-maximal effect; tags tell the direction and shape of the fitted curve.

UniProt P10636, sequence (P10636 whole entry, looked up): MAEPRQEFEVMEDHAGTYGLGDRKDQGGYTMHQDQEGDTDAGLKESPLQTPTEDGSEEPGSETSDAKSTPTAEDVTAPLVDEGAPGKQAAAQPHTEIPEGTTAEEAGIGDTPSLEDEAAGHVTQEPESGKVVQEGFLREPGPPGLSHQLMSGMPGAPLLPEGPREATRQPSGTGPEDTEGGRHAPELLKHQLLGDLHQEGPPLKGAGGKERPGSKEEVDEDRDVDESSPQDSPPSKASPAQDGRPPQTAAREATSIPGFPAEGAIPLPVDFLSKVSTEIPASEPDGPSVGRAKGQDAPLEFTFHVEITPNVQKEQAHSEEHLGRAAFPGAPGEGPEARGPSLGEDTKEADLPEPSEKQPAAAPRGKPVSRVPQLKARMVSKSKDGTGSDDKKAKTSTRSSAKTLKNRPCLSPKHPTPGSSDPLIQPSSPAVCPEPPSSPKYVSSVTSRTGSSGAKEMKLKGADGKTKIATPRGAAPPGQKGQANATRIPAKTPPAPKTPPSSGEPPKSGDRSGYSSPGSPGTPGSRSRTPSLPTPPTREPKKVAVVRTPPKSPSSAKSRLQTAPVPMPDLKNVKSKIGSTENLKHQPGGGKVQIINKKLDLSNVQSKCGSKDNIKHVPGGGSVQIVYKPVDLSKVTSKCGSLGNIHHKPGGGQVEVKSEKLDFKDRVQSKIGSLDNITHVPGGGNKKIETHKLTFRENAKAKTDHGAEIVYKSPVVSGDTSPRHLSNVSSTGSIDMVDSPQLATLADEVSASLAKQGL

SMILES	Potency
Cc1cc(C(F)(F)F)nc(SCCN2CCOCC2)c1C#N	inactive
CCOC(=O)C1=C(CSc2nc(-c3ccccc3)ccc2C#N)OC(N)=C(C#N)C1c1ccc(OC)cc1 (stereo unspecified)	inconclusive: 22.4 µM [inhibitor, partial curve, poor fit]
NC(=S)C1COc2ccccc2O1 (stereo unspecified)	inactive
O=C1N=C(N2CCCC2)S/C1=C\c1cccc(Br)c1	inconclusive: 12.6 µM [inhibitor, partial curve]
CC1CCN(C(=O)c2ccc3c(c2NCCO)C(=O)c2ccccc2C3=O)CC1	inconclusive: 31.6 µM [inhibitor, partial curve]
CCCC(=O)c1ccc(N2CCN(C(=O)c3ccccc3Br)CC2)c(F)c1	inconclusive: 22.4 µM [inhibitor, partial curve, poor fit]
Cc1csc2nc(COC(=O)c3cccc(NC(=O)COc4ccccc4Cl)c3)cc(=O)n12	inconclusive: 0.562 µM [inhibitor, full curve]
C/C(=N\NC(=O)c1cccc(N/N=C(\C)c2ccco2)c1)c1ccco1	inconclusive: 14.1 µM [inhibitor, partial curve]
CCn1c2ccccc2c2nn(C)c(=N)nc21	inactive
CCOC(=O)c1ccccc1NC(=O)NCc1c(-n2cccc2)sc2c1CCCC2	inconclusive: 44.7 µM [inhibitor, single point]
COc1ccc(/C=C(/CC(=O)Nc2ccccc2)c2nc3ccccc3s2)cc1	inconclusive: 15.8 µM [inhibitor, partial curve]
CC1(C)CC(NC(=O)c2sc3cc(Cl)ccc3c2Cl)CC(C)(C)N1	inactive
Cc1nc2ccccc2c(=O)n1/N=C1\C(=O)N(C)c2ccccc21	inconclusive: 3.55 µM [inhibitor, full curve]
CC1CCC/C=C/C(=O)c2c(O)cc(O)cc2CC(=O)O1 (stereo unspecified)	inconclusive: 8.91 µM [inhibitor, single point]
COc1ccc(OC)c(Nc2nc(=O)c3cccnc3s2)c1	inconclusive: 6.31 µM [inhibitor, single point]
COC(=O)c1c(-c2cccc(C)c2)csc1N	inactive
CCN(CC)c1ccc(C=N/C(C#N)=C(\N)C#N)cc1	active: 2 µM
N#C/C(=N\Nc1ccc(S(=O)(=O)N2CCCCC2)cc1)C(N)=S	active: 12.6 µM
Cc1nc(NCc2ccccc2)c2nc(-c3ccccc3)n(CCCN3CCOCC3)c2n1	inactive
O=[N+]([O-])c1ccc(N2CCCC2)cc1NCc1ccccc1	inconclusive: 2.51 µM [inhibitor, partial curve, poor fit]
Cc1ccc(C)c(NC(=O)CSc2nnc3[nH]c(=O)cc(-c4ccccc4)n23)c1	inconclusive: 25.1 µM [inhibitor, partial curve]
COc1ccc(-c2cn3cc(Cl)ccc3n2)cc1OC	inconclusive: 7.94 µM [inhibitor, partial curve]
Cc1nc(CSc2nsc(C)c2C#N)cs1	inactive
COc1ccc(CC(=O)Nc2ccc(-c3nnc(-c4ccccc4)o3)cc2)cc1OC	inconclusive: 28.2 µM [inhibitor, single point]

SMILES	Potency
Cc1ccc(S(=O)(=O)N(CC(=O)Nc2ccc(F)cc2F)Cc2ccc(F)cc2)cc1	inactive
CCCSc1ncc(Cl)c(C(=O)Nc2sc(C(C)=O)c(C)c2C(=O)OCC)n1	inactive
Cc1occc1C(=O)NC(C)c1ccc2c(c1)OCO2 (stereo unspecified)	inactive
Clc1ccc(COn2c(-c3ccccc3)nc3ccccc32)cc1	inconclusive: 39.8 µM [inhibitor, single point]
Cc1cc(=O)n(Cc2c(F)cccc2Cl)c2c1c(C)nn2-c1cccc(F)c1	inconclusive: 3.98 µM [activator, single point]
O=[N+]([O-])c1ccc(Oc2ccc(F)cc2)c2ccncc12	inconclusive: 22.4 µM [inhibitor, partial curve]
CCc1ccc2[nH]c(=O)c(CN(Cc3ccccc3OC)Cc3nnnn3Cc3ccco3)cc2c1	inactive
COc1ccc(-c2cc(C(=O)O)no2)cc1	inconclusive: 8.91 µM [inhibitor, partial curve, poor fit] and inconclusive: 20 µM [inhibitor, single point]
Cc1cccc(C(=O)Nc2c(C(=O)N3CCN(c4ccc(F)cc4)CC3)oc3ccccc23)c1	inactive
CCN(CC)c1cc(C)c2cc(NC(=O)c3cc(OC)cc(OC)c3)ccc2n1	inconclusive: 1.12 µM [inhibitor, full curve]
O=C(Nc1cc(S(=O)(=O)N2CCOCC2)ccc1N1CCCCC1)c1cc(-c2ccccn2)nc2ccccc12	inconclusive: 44.7 µM [inhibitor, single point]
CCn1ccc2c(OCC(=O)Nc3ccc(C)c(Cl)c3)cccc2c1=O	inactive
COc1cccc(N2CCN(C(=O)CCSCc3ccccc3F)CC2)c1	inconclusive: 11.2 µM [inhibitor, partial curve]
O=C(NCCn1cc(SCc2ccccc2F)c2ccccc21)c1c(F)cccc1F	inconclusive: 12.6 µM [inhibitor, single point]
CCOc1ccc(NC(=O)N2CCC(n3nnc4cc(C)ccc43)CC2)cc1	inconclusive: 17.8 µM [inhibitor, partial curve]
CC(=O)c1ccccc1OC(=O)c1ccc([N+](=O)[O-])o1	active: 7.94 µM
CCCCn1c(N)c(N(CC)C(=O)c2cc(OC)cc(OC)c2)c(=O)[nH]c1=O	inactive
NC(=O)C1=C[C@@H](c2ccc(Br)cc2)C[C@@H](OCCCCO)O1	inconclusive: 35.5 µM [inhibitor, single point]
COC(=O)c1ccccc1C(=O)N1CCCC(CCC(=O)NCc2ccc(F)c(F)c2)C1 (stereo unspecified)	inconclusive: 14.1 µM [inhibitor, partial curve]
Cc1ccc(C)c(CSc2nnc3[nH]c(=O)cc(-c4ccccc4)n23)c1	inconclusive: 3.98 µM [inhibitor, partial curve]
CCNc1c(N)c(=O)oc2ccccc12	inconclusive: 31.6 µM [inhibitor, single point]
Cc1c(C(=O)N2CCCCC2)oc2ccc(S(=O)(=O)N3CC(C)CC(C)C3)cc12 (stereo unspecified)	inconclusive: 20 µM [inhibitor, partial curve]
COc1cc2c(cc1NC(=O)CCCN1C(=O)CCC1=O)oc1ccccc12	inactive
Cc1cc(C)c2c(c1)cc(C)c1nnc(SCC(=O)N3CCCc4ccccc43)n12	inconclusive: 3.16 µM [inhibitor, single point]

SMILES	Potency
Oc1ccc2ccccc2c1C=Nc1ccccc1-c1nc2ccccc2[nH]1	active: 28.2 µM
CCc1[nH]c(=S)c(C#N)c2c1CCCC2	inactive
O=C(O)C1CC(=O)N(c2ccc(OCc3c(F)cccc3Cl)cc2)C1 (stereo unspecified)	inactive
COc1ccc(OC(=O)c2ccc(Cl)cc2)c(C(C)=O)c1	inconclusive: 39.8 µM [inhibitor, single point]
O=C(CCc1ccccc1O)N/N=C/c1ccc(Sc2cccc3cccnc23)o1	inactive
O=C(Oc1cccc2cccnc12)c1cccc([N+](=O)[O-])c1	inconclusive: 2.24 µM [inhibitor, single point]
CCc1ccccc1NC(=O)c1sc(-n2nc(C)c(Cc3ccccc3)c2C)nc1C	inactive
CCCN1C/C(=C/c2ccc3c(c2)OCO3)C(=O)/C(=C/c2ccc3c(c2)OCO3)C1	active: 22.4 µM
COC(=O)N/N=C/c1ccc(-c2ccc(Cl)cc2Cl)o1	inconclusive: 15.8 µM [inhibitor, partial curve]
Cc1ccc(Nc2nnc(SCC(=O)Nc3ccccc3[N+](=O)[O-])s2)cc1	inactive
Cc1ccc(C(=O)O/N=C\c2ccc(N3CCOCC3)c([N+](=O)[O-])c2)cc1	inconclusive: 2 µM [inhibitor, full curve]
COc1ccc(C2=Nc3ccc(OC(F)(F)F)cc3NC(c3cccnc3)=N2)cc1	inconclusive: 11.2 µM [inhibitor, partial curve]
S=C(Nc1ccc(Cl)cc1)Nc1ccc2cn[nH]c2c1	inconclusive: 8.91 µM [inhibitor, partial curve]
CC(=O)Nc1ccc(/C=C/C(=O)c2ccccc2)cc1	inconclusive: 3.55 µM [inhibitor, partial curve]
CC(=O)Nc1ccc2nc(NC(=O)CS(=O)(=O)c3ccc(C)cc3)sc2c1	inconclusive: 31.6 µM [inhibitor, single point]
COc1ccc(-c2noc(-c3ccc(NC4CCCC4)c([N+](=O)[O-])c3)n2)cc1OC	inactive
Cc1cc(/C=N/NC(=O)CC#N)c(C)n1-c1ccc([N+](=O)[O-])cc1	inconclusive: 25.1 µM [inhibitor, partial curve]
CCc1c(C)sc2nc(C(C)C)nc(SCC(=O)N3CCc4ccccc4C3)c12	inconclusive: 25.1 µM [inhibitor, partial curve]
Cc1cccc(N2CCN(C(=O)COc3cccc4c3OC(C)(C)C4)CC2)c1C	inactive
Cc1ccc(N=Nc2ccc(N)cc2C)c(S(N)(=O)=O)c1	active: 14.1 µM
COc1ccccc1/C=C\C=N\n1c(C2CCCCC2)n[nH]c1=S	inconclusive: 39.8 µM [inhibitor, single point]
O=C(Nc1ccc([N+](=O)[O-])cc1)C(=O)Nc1cccc(C(=O)O)c1	inconclusive: 3.55 µM [inhibitor, full curve]
Cc1ccc(Oc2nc3c(c(=O)n(Cc4ccccc4F)c(=O)n3C)n2C)cc1	inactive

Reference: PubChem BioAssay AID1460 (National Center for Advancing Translational Sciences (NCATS), 2008)
